# Measurements: the supplement of paper PMC8728848
# The list shows a part of the results.
# Columns and labels:
# Assay in all cases: glycan array binding signal (z-score within array); higher = stronger binding
# Conditions in all cases: glycan notation: IUPAC condensed, linker removed
# GlcNAc(b1-3)GalNAc = target: GlcNAc(b1-3)GalNAc
# Procedure, shortened: (§1)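 The binding signal is a Z-score computed within each array and averaged over linkers. Arrays of the same protein sequence at different concentrations or buffers were also averaged together. Data originate from 3228 arrays in the Consortium for Functional Glycomics database, kept only where the protein sequence was available.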
# GlcNAc(b1-3)Man = target: GlcNAc(b1-3)Man
# Procedure, shortened: as §1
# [1] = target: GlcNAc(b1-3)[GlcNAc(b1-4)][GlcNAc(b1-6)]GlcNAc
# Procedure, shortened: as §1
# [2] = target: GlcNAc(b1-3)[GlcNAc(b1-6)]Gal(b1-4)GlcNAc
# Procedure, shortened: as §1
# [3] = target: GlcNAc(b1-3)[GlcNAc(b1-6)]GalNAc
# Procedure, shortened: as §1
# [4] = target: GlcNAc(b1-4)Gal(b1-4)GlcNAc
# Procedure, shortened: as §1
# GlcNAc(b1-4)GlcNAc = target: GlcNAc(b1-4)GlcNAc
# Procedure, shortened: as §1
# [5] = target: GlcNAc(b1-4)GlcNAc(b1-4)GlcNAc
# Procedure, shortened: as §1
# [6] = target: GlcNAc(b1-4)GlcNAc(b1-4)GlcNAc(b1-4)GlcNAc(b1-4)GlcNAc
# Procedure, shortened: as §1
# [7] = target: GlcNAc(b1-4)GlcNAc(b1-4)GlcNAc(b1-4)GlcNAc(b1-4)GlcNAc(b1-4)GlcNAc
# Procedure, shortened: as §1
# [8] = target: GlcNAc(b1-4)[GlcNAc(b1-6)]GalNAc
# Procedure, shortened: as §1
# [9] = target: GlcNAc(b1-6)Gal(b1-4)GlcNAc
# Procedure, shortened: as §1
# GlcNAc(b1-6)GalNAc = target: GlcNAc(b1-6)GalNAc
# Procedure, shortened: as §1
# [10] = target: GlcNAc6S(b1-3)Gal(b1-4)GlcNAc
# Procedure, shortened: as §1
# Kdn(a2-3)Gal(b1-3)GalNAc = target: Kdn(a2-3)Gal(b1-3)GalNAc
# Procedure, shortened: as §1
# Kdn(a2-3)Gal(b1-3)GlcNAc = target: Kdn(a2-3)Gal(b1-3)GlcNAc
# Procedure, shortened: as §1
# Kdn(a2-3)Gal(b1-4)Glc = target: Kdn(a2-3)Gal(b1-4)Glc
# Procedure, shortened: as §1
# Kdn(a2-3)Gal(b1-4)GlcNAc = target: Kdn(a2-3)Gal(b1-4)GlcNAc
# Procedure, shortened: as §1
# [11] = target: Kdn(a2-3)Gal(b1-4)[Fuc(a1-3)]GlcNAc
# Procedure, shortened: as §1
# Kdn(a2-6)Gal(b1-4)GlcNAc = target: Kdn(a2-6)Gal(b1-4)GlcNAc
# Procedure, shortened: as §1
# [12] = target: Man(a1-2)Man(a1-2)Man(a1-3)Man
# Procedure, shortened: as §1
# [13] = target: Man(a1-2)Man(a1-2)Man(a1-6)[Man(a1-3)]Man
# Procedure, shortened: as §1
# Man(a1-2)Man(a1-3)Man = target: Man(a1-2)Man(a1-3)Man
# Procedure, shortened: as §1
# [14] = target: Man(a1-2)Man(a1-3)[Man(a1-2)Man(a1-6)]Man
# Procedure, shortened: as §1
# [15] = target: Man(a1-2)Man(a1-3)[Man(a1-2)Man(a1-6)]Man(a1-6)[Man(a1-2)Man(a1-2)Man(a1-3)]Man
# Procedure, shortened: as §1
# [16] = target: Man(a1-2)Man(a1-3)[Man(a1-2)Man(a1-6)]Man(a1-6)[Man(a1-2)Man(a1-2)Man(a1-3)]Man(b1-4)GlcNAc(b1-4)GlcNAc
# Procedure, shortened: as §1
# [17] = target: Man(a1-2)Man(a1-3)[Man(a1-6)]Man(a1-6)[Man(a1-2)Man(a1-3)]Man(b1-4)GlcNAc(b1-4)GlcNAc
# Procedure, shortened: as §1
# [18] = target: Man(a1-2)Man(a1-6)[Man(a1-3)]Man(a1-6)[Man(a1-2)Man(a1-2)Man(a1-3)]Man
# Procedure, shortened: as §1
# [19] = target: Man(a1-2)Man(a1-6)[Man(a1-3)]Man(a1-6)[Man(a1-2)Man(a1-2)Man(a1-3)]Man(b1-4)GlcNAc(b1-4)GlcNAc
# Procedure, shortened: as §1
# Man(a1-3)[Man(a1-6)]Man = target: Man(a1-3)[Man(a1-6)]Man
# Procedure, shortened: as §1
# [20] = target: Man(a1-3)[Man(a1-6)]Man(a1-6)[Man(a1-2)Man(a1-3)]Man(b1-4)GlcNAc(b1-4)GlcNAc
# Procedure, shortened: as §1
# [21] = target: Man(a1-3)[Man(a1-6)]Man(a1-6)[Man(a1-3)]Man
# Procedure, shortened: as §1
# [22] = target: Man(a1-3)[Man(a1-6)]Man(a1-6)[Man(a1-3)]Man(b1-4)GlcNAc(b1-4)GlcNAc
# Procedure, shortened: as §1
# [23] = target: Man(a1-3)[Man(a1-6)]Man(b1-4)GlcNAc(b1-4)GlcNAc
# Procedure, shortened: as §1
# [24] = target: Man(a1-3)[Man(a1-6)]Man(b1-4)GlcNAc(b1-4)[Fuc(a1-6)]GlcNAc
# Procedure, shortened: as §1
# Man(a1-6)Man = target: Man(a1-6)Man
# Procedure, shortened: as §1
# Man(b1-4)GlcNAc = target: Man(b1-4)GlcNAc
# Procedure, shortened: as §1
# MurNAc(b1-4)GlcNAc = target: MurNAc(b1-4)GlcNAc
# Procedure, shortened: as §1
binder,measurement,setting,value
"MGL2 (Mus musculus), Q8JZN1 (protein) MTMRYENFQNLEREEKNQEMRNGDKKGGMESPKFALIPSQSFLWRILSWTHLLLFSLGLSLLLLVVISVIGSQNSQLRRDLGTLRAILDNTTSKIKAEFQSLDSRADNFEKGISSLKVDVEDHRQELQAGRDLSQKVTSLESTLEKREQALKTDLSDLTDHVQQLETDLKALTCQLANLKNNGSEVACCPLHWTEHEGSCYWFSESEKSWPEADKYCRLENSHLVVVNSLEEQNFLQNRLANVLSWMGLTDQNGPWRWVDGTDFDKGFKNWRPLQPDNWHGHMLGGGEDCAHFSYDGRWNDDVCQRHYHWICETELGKASSAHSPQLIASVP",glycan array binding signal (z-score),GlcNAc(b1-3)GalNAc,-0.095
same,glycan array binding signal (z-score),GlcNAc(b1-3)Man,-0.304
same,glycan array binding signal (z-score),[1],-0.146
same,glycan array binding signal (z-score),[2],-0.295
same,glycan array binding signal (z-score),[3],-0.162
same,glycan array binding signal (z-score),[4],-0.231
same,glycan array binding signal (z-score),GlcNAc(b1-4)GlcNAc,-0.174
same,glycan array binding signal (z-score),[5],-0.183
same,glycan array binding signal (z-score),[6],-0.21
same,glycan array binding signal (z-score),[7],-0.179
same,glycan array binding signal (z-score),[8],-0.248
same,glycan array binding signal (z-score),[9],-0.15
same,glycan array binding signal (z-score),GlcNAc(b1-6)GalNAc,6.85
same,glycan array binding signal (z-score),[10],-0.225
same,glycan array binding signal (z-score),Kdn(a2-3)Gal(b1-3)GalNAc,-0.178
same,glycan array binding signal (z-score),Kdn(a2-3)Gal(b1-3)GlcNAc,-0.198
same,glycan array binding signal (z-score),Kdn(a2-3)Gal(b1-4)Glc,-0.077
same,glycan array binding signal (z-score),Kdn(a2-3)Gal(b1-4)GlcNAc,-0.215
same,glycan array binding signal (z-score),[11],-0.248
same,glycan array binding signal (z-score),Kdn(a2-6)Gal(b1-4)GlcNAc,-0.195
same,glycan array binding signal (z-score),[12],-0.161
same,glycan array binding signal (z-score),[13],-0.215
same,glycan array binding signal (z-score),Man(a1-2)Man(a1-3)Man,-0.114
same,glycan array binding signal (z-score),[14],-0.135
same,glycan array binding signal (z-score),[15],-0.224
same,glycan array binding signal (z-score),[16],-0.041
same,glycan array binding signal (z-score),[17],-0.249
same,glycan array binding signal (z-score),[18],-0.183
same,glycan array binding signal (z-score),[19],-0.223
same,glycan array binding signal (z-score),Man(a1-3)[Man(a1-6)]Man,-0.147
same,glycan array binding signal (z-score),[20],-0.006
same,glycan array binding signal (z-score),[21],0.052
same,glycan array binding signal (z-score),[22],-0.288
same,glycan array binding signal (z-score),[23],-0.183
same,glycan array binding signal (z-score),[24],-0.287
same,glycan array binding signal (z-score),Man(a1-6)Man,-0.18
same,glycan array binding signal (z-score),Man(b1-4)GlcNAc,-0.174
same,glycan array binding signal (z-score),MurNAc(b1-4)GlcNAc,-0.181
